Here are results for 153 variants from a collection of fitness landscapes (doi:10.1016/j.celrep.2020.107928).

In all, about 81,000 sequences were measured (“one-hybrid fitness for binding parS DNA”: median about -0.17, highest 2% from about 0.51 on). The list shows a part of the results.

Sequences and labels used below:
B1: Caulobacter ParB omega fusion; a variant is named by its letters at X, in order, B8GW30 (parent)
chain: MESVVVGEPGMSEGRRGLGRGLSALLGEVDAAPAQAPGEQLGGSREAPIEILQRNPDQPRRTFREEDLEDLSNSIREKGVLQPILVRPSPDTAGEYQIVAGERAWRAAQRAGLKTVPIMVRELDDLAVLEIGIIENVQRADLNVLEEALSYKVLMEKFERTQENIAQTIGKSXSHVANXMRLLXLPDEVQSYLVSGELTAXHARAIAAAADPVALAKQIIEGGLSVRETEALARKAPNLSAGKSKGGRPPRVKDTDTQALESDLSSVLGLDVSIDHRGSTGTLTITYATLEQLDDLCNRLTRGI

Variants of B1 are the subject of the test. Description: one-hybrid fitness for binding parS DNA (scaled: cognate 1, non-cognate 0); higher = stronger binding. As to conditions: with parS DNA site. A digest of the protocol:
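In E. coli USO, a HIS3 reporter with its site placed 19 bp from the promoter was used to select Caulobacter ParB variants randomised at four specificity codons. Growth lasted 48 hours at 37°C on histidine-free M9 containing 0.1 mM IPTG and 5 mM 3-AT. Fitness was taken as the log change in variant-to-wild-type read ratio from Illumina sequencing of pre- and post-selection plasmids, rescaled between the non-cognate and cognate sites.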
TRYT: the “one-hybrid fitness for binding parS DNA” value was no more than 0.2. Then QPPA, with no more than 0.2; and PHKP, with no more than 0.2. Then TTPF, with no more than 0.2; and YESS, with no more than 0.2; and HTSN, with no more than 0.2. Consider CNSF, for which the “one-hybrid fitness for binding parS DNA” value is no more than 0.2. In the case of AFVR it was no more than 0.2; in that of RSRD, no more than 0.2. As to NSNT, the “one-hybrid fitness for binding parS DNA” value is no more than 0.2. For EIRG, the “one-hybrid fitness for binding parS DNA” value is no more than 0.2. In the case of NMLN it was no more than 0.2; in that of WTNL, no more than 0.2; in that of YRHC, no more than 0.2. In the case of HGPL it was no more than 0.2. As to QFFT, the “one-hybrid fitness for binding parS DNA” value was no more than 0.2.

GRKC: the “one-hybrid fitness for binding parS DNA” value is no more than 0.2. Turning to DIPV, the “one-hybrid fitness for binding parS DNA” value is no more than 0.2. Then PMDW, with no more than 0.2; and GHMS, with no more than 0.2.

For TENF, the “one-hybrid fitness for binding parS DNA” value was no more than 0.2. Then RTFC, with 0.986; and LIYG, with no more than 0.2; and YFLT, with no more than 0.2. In the case of MKWS it was no more than 0.2; in that of MNFR, no more than 0.2; in that of QPRF, no more than 0.2.

Regarding RSHF, the “one-hybrid fitness for binding parS DNA” value was determined as 0.257. In the case of QQNA it was no more than 0.2; in that of NNLI, no more than 0.2; in that of PASY, no more than 0.2.

In the case of IHAT, the “one-hybrid fitness for binding parS DNA” value is no more than 0.2. Then HFNK, with no more than 0.2. Then RISF, with 0.21; and SPSI, with no more than 0.2. In the case of IHMC it was no more than 0.2. Regarding MASF, the “one-hybrid fitness for binding parS DNA” value is no more than 0.2. As for SAAN, the “one-hybrid fitness for binding parS DNA” value was no more than 0.2. Regarding TCKF, the “one-hybrid fitness for binding parS DNA” value is no more than 0.2.

Consider RRMA, for which the “one-hybrid fitness for binding parS DNA” value worked out at 0.809.

Regarding PWLN, the “one-hybrid fitness for binding parS DNA” value was no more than 0.2. In the case of RQSG it was 0.984.

For MALS, the “one-hybrid fitness for binding parS DNA” value was no more than 0.2. In the case of CGDA it was no more than 0.2; in that of LRLI, no more than 0.2; in that of HFSS, no more than 0.2. As to LNPW, the “one-hybrid fitness for binding parS DNA” value is no more than 0.2. Turning to PSGW, the “one-hybrid fitness for binding parS DNA” value was no more than 0.2.

With QGWT, the “one-hybrid fitness for binding parS DNA” value is no more than 0.2. Regarding HTLD, the “one-hybrid fitness for binding parS DNA” value is no more than 0.2.

Take NESS: the “one-hybrid fitness for binding parS DNA” value is no more than 0.2. As to VSHF, the “one-hybrid fitness for binding parS DNA” value is no more than 0.2. With KLIV, the “one-hybrid fitness for binding parS DNA” value was no more than 0.2. As to RQYR, the “one-hybrid fitness for binding parS DNA” value is no more than 0.2. In the case of WPQG it was no more than 0.2; in that of QRWG, no more than 0.2. Take KPGR: the “one-hybrid fitness for binding parS DNA” value was no more than 0.2. In the case of PILE it was no more than 0.2; in that of ACLM, no more than 0.2.

Turning to MPGR, the “one-hybrid fitness for binding parS DNA” value is no more than 0.2.

In the case of RKPP, the “one-hybrid fitness for binding parS DNA” value was no more than 0.2. In the case of RMVY it was 0.438. In the case of RDGP it was no more than 0.2. In the case of MYEK it was no more than 0.2; in that of APFC, no more than 0.2; in that of RGQP, no more than 0.2. Turning to DFSM, the “one-hybrid fitness for binding parS DNA” value was no more than 0.2. In the case of PLCR it was no more than 0.2; in that of DLYN, no more than 0.2; in that of SWRM, no more than 0.2. Then AIDI, with no more than 0.2; and YSTC, with no more than 0.2; and YKLQ, with no more than 0.2. In the case of HKVS it was no more than 0.2. In the case of CGGS, the “one-hybrid fitness for binding parS DNA” value is no more than 0.2. Turning to FPTL, the “one-hybrid fitness for binding parS DNA” value was no more than 0.2. Then KSTR, with no more than 0.2.

Turning to GAYS, the “one-hybrid fitness for binding parS DNA” value was no more than 0.2. LIKG: the “one-hybrid fitness for binding parS DNA” value is no more than 0.2.

In the case of PKNT, the “one-hybrid fitness for binding parS DNA” value is no more than 0.2.

In the case of DPRH, the “one-hybrid fitness for binding parS DNA” value amounted to 0.223. Consider SVPF, for which the “one-hybrid fitness for binding parS DNA” value is no more than 0.2. In the case of RATE it was 0.204; in that of EQAI, no more than 0.2.

DGFS: the “one-hybrid fitness for binding parS DNA” value is no more than 0.2. Then RGIW, with no more than 0.2; and CGTD, with no more than 0.2; and PQIR, with no more than 0.2. Then RYIF, with no more than 0.2; and PIWN, with no more than 0.2. In the case of SVCT it was no more than 0.2; in that of YQAG, no more than 0.2; in that of GTAM, no more than 0.2. Take WPHR: the “one-hybrid fitness for binding parS DNA” value was no more than 0.2.

WQQS: the “one-hybrid fitness for binding parS DNA” value is no more than 0.2.

For the variant TMRC, the “one-hybrid fitness for binding parS DNA” value is no more than 0.2.

Consider ADEG, for which the “one-hybrid fitness for binding parS DNA” value is no more than 0.2. With RKPH, the “one-hybrid fitness for binding parS DNA” value was no more than 0.2.

With EPHW, the “one-hybrid fitness for binding parS DNA” value was no more than 0.2. Consider AADS, for which the “one-hybrid fitness for binding parS DNA” value is no more than 0.2.

LFRP: the “one-hybrid fitness for binding parS DNA” value was no more than 0.2. Consider YKQT, for which the “one-hybrid fitness for binding parS DNA” value was no more than 0.2. RFTR: the “one-hybrid fitness for binding parS DNA” value was no more than 0.2.

Consider GPTK, for which the “one-hybrid fitness for binding parS DNA” value is no more than 0.2. In the case of RPPN it was no more than 0.2.

Turning to SRKT, the “one-hybrid fitness for binding parS DNA” value was no more than 0.2. Then CAKK, with no more than 0.2; and VQTS, with no more than 0.2; and FGHA, with no more than 0.2. As to NCLC, the “one-hybrid fitness for binding parS DNA” value is no more than 0.2. RWHH: the “one-hybrid fitness for binding parS DNA” value was no more than 0.2.

In the case of YDET, the “one-hybrid fitness for binding parS DNA” value is no more than 0.2. In the case of RCFE it was 0.252; in that of VEWR, no more than 0.2. For the variant CFIR, the “one-hybrid fitness for binding parS DNA” value is no more than 0.2. Then PRKK, with no more than 0.2; and RWAM, with no more than 0.2; and TSVV, with no more than 0.2. Then TIET, with no more than 0.2. In the case of VIAR it was no more than 0.2. Regarding KTQI, the “one-hybrid fitness for binding parS DNA” value is no more than 0.2. In the case of RYCN it was 0.382; in that of CMPI, no more than 0.2. As to QEHW, the “one-hybrid fitness for binding parS DNA” value is no more than 0.2.

For the variant RGLA, the “one-hybrid fitness for binding parS DNA” value is 0.259.

With APDA, the “one-hybrid fitness for binding parS DNA” value is no more than 0.2. For the variant HHQG, the “one-hybrid fitness for binding parS DNA” value is no more than 0.2. In the case of LVNT it was no more than 0.2; in that of SADF, no more than 0.2; in that of NRYC, no more than 0.2. Then GVSR, with no more than 0.2; and WPPG, with no more than 0.2. On to TKCG, for which the “one-hybrid fitness for binding parS DNA” value was no more than 0.2.

On to KPSR, for which the “one-hybrid fitness for binding parS DNA” value was no more than 0.2. On to QRDE, for which the “one-hybrid fitness for binding parS DNA” value was no more than 0.2.

Regarding RHMG, the “one-hybrid fitness for binding parS DNA” value is 0.932. In the case of KCQT it was no more than 0.2. In the case of RWLS it was 0.8.

With GAPP, the “one-hybrid fitness for binding parS DNA” value was no more than 0.2. Then YSNE, with no more than 0.2; and HDQC, with no more than 0.2; and RQKC, with 0.926.

With HAYC, the “one-hybrid fitness for binding parS DNA” value is no more than 0.2. In the case of FKNI, the “one-hybrid fitness for binding parS DNA” value was no more than 0.2. Regarding RVAW, the “one-hybrid fitness for binding parS DNA” value was determined as 0.209.

On to LDEA, for which the “one-hybrid fitness for binding parS DNA” value was no more than 0.2. Then ITKF, with no more than 0.2. In the case of KACT it was no more than 0.2.

As for PQSV, the “one-hybrid fitness for binding parS DNA” value was no more than 0.2.

As for QCPP, the “one-hybrid fitness for binding parS DNA” value was no more than 0.2. Then QKNE, with no more than 0.2.

As to LPAL, the “one-hybrid fitness for binding parS DNA” value was no more than 0.2. Then EGQS, with no more than 0.2.
